# In the supplement of paper PMC11417369:
# ± gives the standard deviation of the averaged measurements. Some of the results follow.
# Test system: PfAP2-G AP2 domain (GST-tagged)
# Assay: gcPBM binding intensity (ln(normalized median fluorescence intensity)); higher = stronger DNA binding
# Method in brief: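 Using an Agilent 4 × 180k array, primer-extended double-stranded 36-bp intergenic genomic probes and negative controls were exposed for 1 h to GST-fused P. falciparum DNA-binding domains expressed in E. coli. Binding was carried out in 1× PBS with 1% milk, 0.2 mg/ml BSA, 0.5% salmon testes DNA and 0.03% Triton X-100, and protein was detected with Alexa488 anti-GST antibody and a 488 nm scan. Binding intensity is the highest Masliner-normalised natural-log median intensity across replicate spots of either probe orientation.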
row,Sequence,gcPBM binding intensity (ln)
1,TATTTGTATATTCATTCCTGTATTCCCTTTTTTGTA [CACACA_negctrl_site1236],9.94 ± 0.085
2,ATAATGTCATAATTATATCCTTTGGCATAAAATAAA [XGTACX_negctrl_site574],9.84 ± 0.2
3,CCTAAATAAATGGACACACACATATTTATATTTATA [CACACA_site6789],11 ± 0.71
4,GAATGTAAATATTAAAGTACACAGAATATATCTTCA [XGTACX_site8149],11.3 ± 0.75
5,TATAATATTATATAATGTACGCATTTATTATTTAAA [XGTACX_site8326],11.5 ± 1
6,TTAAATATCCATATTTCACACATTTCGATATATATA [CACACA_site4208],9.99 ± 0.21
7,ACTGTACTATAAAATACACACATATAAATATAAATA [CACACA_site3009],11.2 ± 1
8,TATTTTAGAGAAAAAAATAAATTACAAAATGTTAGG [CACACA_negctrl_site1645],9.93 ± 0.2
9,TTTGAAGGAAGGGGGGGAGGGGCCATAACAAAGGAA [GTGCAC_negctrl_site408],11.6 ± 0.86
10,AAATAAAATCATGAATGTACACAAAAATTATTGCAA [XGTACX_site5691],11.3 ± 0.68
11,ATATACATTTTAAATTTTAATGTAACCCATGGGAGA [CACACA_negctrl_site588],10.2 ± 0.2
12,TGAACCCACAAATCACGTACATATATATACACGTGT [XGTACX_site7739],11.4 ± 0.93
13,TTTAACAACTATTTCTGTACACATTTTTATATAATT [XGTACX_site4917],11.5 ± 0.91
14,TATATACGTAATAGTAGTACTTTAAAATGCGGAAAT [XGTACX_site4597],11.5 ± 0.73
15,TGTACGAGTCGTAGAGTGCAGTCTGGAGAAACGTAC [GTGCAC_site9682],11 ± 0.47
16,ATAAATAACTTTTAAATACACACGTAAAATATATTG [CACACA_site3302],10.15 ± 0.014
17,ATTTATATTATGAGGAGTACAATACTTATAGATGTA [XGTACX_site7510],11.6 ± 0.98
18,AAAAAAGATATATAAACACACATATTTATATACACA [CACACA_site6866],9.66 ± 0.16
19,GATAGACACGTGCACACATGCAATACTTTATTCAGT [TGCATGCA_site778],10.6 ± 0.29
20,GTAGTAATAAATCTAGTGCATTATATATAACAAAAA [GTGCAC_site9803],10.02 ± 0.049
21,TTTTTTTCTTTTTTTTGTACTCATACATACTATCAT [XGTACX_site607],11.3 ± 0.73
22,AAAAATGTGCACACGCGTACACACAAAAAAAGAAAA [XGTACX_site4097],11.5 ± 0.79

row,Sequence,gcPBM binding intensity (ln)
1,AAAATATATCAAAATAGTACATAATTTTTTAAGAAT [XGTACX_site3515],11 ± 0.76
2,TATATAAAAAATAGGTGGTCAACTTAAATATTTTAT [XGTACX_site4495],11.3 ± 0.74
3,AATAAAGCAATAAATACACACATATATATATATATA [CACACA_site2934],10 ± 0.28
4,TTGCCTTAAAAAGGAACACACATGCTTTTTTTAGTT [CACACA_site938],9.99 ± 0.071
5,AAAAAAAAAAAAAATGCACACATATATTTCCATATA [CACACA_site8416],10 ± 0.16
6,AACTTACTCTTTACAAGTACGTAAAAGAAATAGAAA [XGTACX_site1782],11.4 ± 0.8
7,AGTTATGCATCTTAGGTGCTATGCCCAATTTATTTT [GTGCAC_site9977],9.96 ± 0.042
8,GTATATATACATAAATGTACATATATATAAAAAATG [XGTACX_site3271],11 ± 0.61
9,AATATATAAGTCTACTGTACCCAAAATAAAATTTAT [XGTACX_site8727],11.5 ± 0.91
10,ATATATCCAAATAGATTACATATATATATATAGATA [TGCATGCA_negctrl_site277],9.64 ± 0.099
11,AAATATAATAAAATGACACACGCATATATATATATA [CACACA_site8900],10 ± 0.28
12,AAATAAGAACATAGAATGCACTTTTTTTTTTTTTCC,10.07 ± 0.057
13,ATATATTTATATATTGCACACAAAAAAAAAAAAAAA [CACACA_site8468],9.98 ± 0.64
14,AACATTATAAGACACACACACACATATATAAATATA [CACACA_site6622],10.2 ± 0.24
15,TTATGGGACTCAAATACATGCAAAAATATTTTTAAG [TGCATGCA_site559],10.5 ± 0.42
16,TAAGGTTAAATAATATGTACATATTATTATATATAT [XGTACX_site6953],11.3 ± 0.72
17,TTAAACCGTGGGAGCACACACACACCCAGACACATA [CACACA_site4337],10.4 ± 0.35
18,AAATATGTATATATATATATATATATATATATATAT [GTGCAC_negctrl_site335],9.76 ± 0.47
19,TATTGCCCTTGACACACACACATATAAATAAATATA [CACACA_site7220],10.4 ± 0.42
20,CACGTGTAAATAGTTTTACAATATCTCGATATGTAT [CACACA_negctrl_site785],10.1 ± 0.18
21,TAATAATCAAACTATACACACATAAATAAATATATA [CACACA_site156],9.77 ± 0.014
22,AAGGAAATAAGAAAAAGTACACATAAGTATATAACA [XGTACX_site1173],11.5 ± 0.85
